For 28 molecules, activity change, negative = inhibition results are on record in PubChem BioAssay AID1745853 (National Center for Advancing Translational Sciences (NCATS), 2022).

Each structure is given as a SMILES string. Some of the results follow. These are further read-outs of the screen, such as a control signal, another cell line or another target. No call is given for them.

Assay in all cases: Primary Screen for Target Class Profiling of Small Molecule Inhibitors of Methyltransferases
Assay [1] has as its target Glycine N-methyltransferase (Homo sapiens) (UniProt Q14749). The note with it: purified enzyme, MTase-Glo SAH luminescence; measured here: GNMT inhibition; at 40 µM; stronger effect = lower value. Summed up:
(§1)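 Each enzyme was assayed with SAM and its substrate. SAH formation detected by MTase-Glo luminescence; single-point 40 uM screen[…].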

Assay [2] concerns the target Guanidinoacetate N-methyltransferase (Homo sapiens) (UniProt Q14353). The note with it: purified enzyme, MTase-Glo SAH luminescence; measured here: GAMT inhibition; at 40 µM; stronger effect = lower value. Summed up:
as §1

Assay [3] deals with Histamine N-methyltransferase (Homo sapiens) (UniProt P50135). The note with it: purified enzyme, MTase-Glo SAH luminescence; measured here: HNMT inhibition; at 40 µM; stronger effect = lower value. The method in brief: as §1
The target in assay [4] is Nicotinamide N-methyltransferase (Homo sapiens) (UniProt P40261). The note with it: purified enzyme, MTase-Glo SAH luminescence; measured here: NNMT inhibition; at 40 µM; stronger effect = lower value. Summed up: as §1
The target of assay [5] is Phenylethanolamine N-methyltransferase (Homo sapiens) (UniProt P11086). The note with it: purified enzyme, MTase-Glo SAH luminescence; measured here: PNMT inhibition; at 40 µM; stronger effect = lower value. Summed up:
as §1
On the % scale 0 is the no-effect control and ±100 the full control effect.

Take `Cc1ccc(-c2ccccc2CN2CCN(C(=O)Nc3ccccc3)CC2)cc1Cl`: the activity change, negative = inhibition in assay [1] was -6.06%; in assay [2], -10.1%; in assay [3], -4.51%; in assay [4], -13.5%; in assay [5], -10.9%.

As for `O=C(NC1CCCC1)c1ccc(OC2CCN(CCCC(F)(F)F)CC2)c(Cl)c1`, the activity change, negative = inhibition in assay [1] is -3.02%; in assay [2] it was -6.13%; in assay [3] it was -2.02%; in assay [4], -5.56%; in assay [5], -4.04%.

For the molecule `O=C(NCCc1ccccc1)c1ccc2c(=O)nc3c(-c4cccc(C(F)(F)F)c4)n[nH]n3c2c1`, the activity change, negative = inhibition in assay [1] was -6.84%; in assay [2] it was 2.1%; in assay [3], 1.74%; in assay [4], -6.06%; in assay [5], -6.41%.

Regarding `C/C=C(\C)C(=O)O[C@@H](C)[C@H]1CC[C@]2(O)C3CCC4C[C@@H](OC5CC(OC)C(OC6CC(OC)C(OC7CC(OC)C(OC8OC(C)C(OC9OC(CO)C(O)C(O)C9O)C(OC)C8O)C(C)O7)C(C)O6)C(C)O5)CC[C@]4(C)C3[C@H](O)[C@@H](O)[C@]12C` (stereo partly drawn), the activity change, negative = inhibition in assay [1] was 4.12%; in assay [2] it was 0.894%; in assay [3], 10.1%; in assay [4], -10.8%; in assay [5] it was 6.9%.

`COC(=O)c1ncn2c1C(=O)N(Cc1ccc(OC)cc1)C(C)(C(=O)NCCCOC(C)C)C2` (stereo not drawn): the activity change, negative = inhibition in assay [1] was determined as 3.55%; in assay [2], 3.68%; in assay [3], 10.6%; in assay [4], 9.32%; in assay [5] it was 9.75%.

As to `C=C1C2=CC(O)C(C)C1(C)CC/C(C)=C/CCC1(C)OC1C2=O` (stereo not drawn), the activity change, negative = inhibition is 0% in assay [1]; 7.66% in assay [2]; 8.64% in assay [3]; -5.7% in assay [4]; 2.76% in assay [5].

As to `CC(C)[C@H](O)C(=O)N[C@@H](C)C(=O)N[C@@H]1C(=O)N(C)CCc2ccccc21`, the activity change, negative = inhibition in assay [2] was -13.6%; in assay [4] it was -27.5%; in assay [5] it was -4.87%.

On to `CCCC/C=C\CCCCCc1cc(=O)c2ccccc2n1C`, for which the activity change, negative = inhibition in assay [1] was -1.12%; in assay [2] it was -2.56%; in assay [3] it was 3.65%; in assay [4], -18.9%; in assay [5], -0.002%.

Turning to `CC(C)(C)c1nn2c(SCC(=O)Nc3ccccc3Cl)nnc2[nH]c1=O`, the activity change, negative = inhibition is -2.96% in assay [1]; 4.1% in assay [2]; -7.39% in assay [3]; -12.6% in assay [4]; -11.9% in assay [5].

`Cc1cn(-c2cc(NC(=O)c3ccc(C)c(Nc4nccc(-c5cnccn5)n4)c3)cc(C(F)(F)F)c2)cn1`: the activity change, negative = inhibition in assay [1] is 4.05%; in assay [2], 16.6%; in assay [3], 5.25%; in assay [4], -5.04%; in assay [5] it was 4.02%.

Consider `CCCc1nc2c3ccccc3n(CC(=O)N3CCN(c4ccccc4OC)CC3)c(=O)n2n1`, for which the activity change, negative = inhibition was -5.86% in assay [1]; -2.32% in assay [2]; -4.84% in assay [3]; -6.59% in assay [4]; -9.41% in assay [5].

On to `Cc1nn2c(c1-c1ccccc1C(C)C)N(C(=O)c1cnccn1)CCC2`, for which the activity change, negative = inhibition in assay [1] was -2.88%; in assay [2], -1.92%; in assay [3], -0.397%; in assay [4] it was 1.76%; in assay [5] it was -2.01%.

As to `C=CCN1CCc2cc(O)c(O)cc2C(c2ccccc2)C1` (stereo not drawn), the activity change, negative = inhibition in assay [1] is -45.7%; in assay [2] it was 11.4%; in assay [3] it was -19.4%; in assay [4] it was -6.71%; in assay [5], 3.69%.

For `CC(C)NC(=O)c1ccc2c(=O)n(C(C)C)c3nn(Cc4ccc(F)cc4Cl)c(=O)n3c2c1`, the activity change, negative = inhibition was 3.68% in assay [1]; 0.195% in assay [2]; 11.7% in assay [3]; -4.08% in assay [4]; 5.55% in assay [5].

With `CC(CN1C(=O)c2ccc(-c3ccco3)n2CC1(C)C(=O)NC1CCCCCC1)c1ccccc1` (stereo not drawn), the activity change, negative = inhibition was 1.73% in assay [1]; 0% in assay [2]; 7.94% in assay [3]; 0.694% in assay [4]; 1.43% in assay [5].

For the molecule `Cc1ccc(CSc2nnc3n(CCCOC(C)C)c(=O)c4cc(Cl)ccc4n23)cc1`, the activity change, negative = inhibition in assay [1] is -5.1%; in assay [2], 4.53%; in assay [3], 2.98%; in assay [4], -13.3%; in assay [5] it was 0.955%.

For the molecule `CC1CN(c2ccccc2C#N)C(=O)CN1C(=O)c1ccc2c(c1)OCCO2` (stereo not drawn), the activity change, negative = inhibition in assay [1] was -3.48%; in assay [2], -6.33%; in assay [3], 0.178%; in assay [4], -8.29%; in assay [5] it was -2.21%.

Regarding `CN1c2ccccc2C(=O)N2CCc3c([nH]c4ccccc34)C21` (stereo not drawn), the activity change, negative = inhibition was -11.2% in assay [1]; 1.38% in assay [2]; -5.22% in assay [3]; -19.6% in assay [4]; -8.99% in assay [5].

`Cc1ccccc1Cn1nc2n(CC(C)C)c(=O)c3ccccc3n2c1=O`: the activity change, negative = inhibition in assay [1] was 9.9%; in assay [2], 2.59%; in assay [3], 12.7%; in assay [4] it was 8.88%; in assay [5] it was 10.6%.

Take `COc1ccc(N2CCN(S(=O)(=O)c3cc4c(cc3Cl)n(C)c(=O)n4C)CC2)cc1`: the activity change, negative = inhibition in assay [1] was 8.49%; in assay [2], 0%; in assay [3], 11.6%; in assay [4], -0.114%; in assay [5], -0.009%.

`Cc1ccc2n1CCN(C(=O)Nc1ccc(F)cc1)C2C(C)C` (stereo not drawn): the activity change, negative = inhibition is 13.4% in assay [1]; 0.407% in assay [2]; 6.71% in assay [3]; 0.438% in assay [4]; 6.84% in assay [5].

For `Cc1[nH]nc2ccc(-c3cncc(OC[C@@H](N)Cc4ccccc4)c3)cc12`, the activity change, negative = inhibition in assay [1] was -38%; in assay [2], -23.9%; in assay [3], -74.9%; in assay [4] it was -57.6%; in assay [5], -33.9%.

For `COC1CCCOC12CCN(C(=O)CCn1c(C)nc3ccccc31)CC2` (stereo not drawn), the activity change, negative = inhibition was -2.18% in assay [1]; -2.95% in assay [2]; -1.82% in assay [3]; -3.22% in assay [4]; -23.9% in assay [5].

Turning to `CC1CCCCC1NC(=O)CCn1ccc2cc(S(=O)(=O)N3CCCC3)ccc21` (stereo not drawn), the activity change, negative = inhibition in assay [1] stood at 7.46%; in assay [2] it was 0.922%; in assay [3] it was 7.35%; in assay [4], 13.1%; in assay [5] it was 7.02%.

For `COc1ncc(-c2ccc3c(Nc4cc(Oc5cc(F)cc(F)c5)cc(C(=O)O)c4)c(S(=O)(=O)NC4CC4)cnc3c2)c(OC)n1`, the activity change, negative = inhibition in assay [1] is -24.1%; in assay [2], -1.21%; in assay [3], -19.1%; in assay [4], -50%; in assay [5], -13.3%.

`Cc1nc2ccccc2n1CCNS(=O)(=O)c1ccc(F)cc1`: the activity change, negative = inhibition was -1.32% in assay [1]; 0% in assay [2]; 2.07% in assay [3]; 1.88% in assay [4]; 4.39% in assay [5].

As to `CCNC(=O)c1ccc2c(c1)OCCN(c1cccc(OC(F)(F)F)c1)C2`, the activity change, negative = inhibition is -6.89% in assay [1]; -5.1% in assay [2]; -0.926% in assay [3]; -18.6% in assay [4]; -9.21% in assay [5].

Take `CSc1ccc(CNC(=O)c2cc3n(n2)CC(C)(C(=O)NCc2ccc(F)cc2)N(C)C3=O)cc1` (stereo not drawn): the activity change, negative = inhibition was 3.03% in assay [1]; 0% in assay [2]; -6.49% in assay [3]; -4.29% in assay [4]; 4.03% in assay [5].
